The values that follow come from the supplement of paper PMC11417369.

± gives the standard deviation of the averaged measurements. Some of the results follow.

This assay has as its system PfAP2-EXP AP2 domain (GST-tagged). Briefly: gcPBM binding intensity (ln(normalized median fluorescence intensity)); higher = stronger DNA binding. A digest of the protocol: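 In this array assay, P. falciparum DNA-binding domains with a GST tag, expressed in E. coli, were applied for 1 h to primer-extended double-stranded 36-bp intergenic genomic probes and negative controls on an Agilent 4 × 180k array. Bound protein was visualised with Alexa488 anti-GST antibody at 488 nm. Binding intensity is the highest Masliner-normalised natural-log median intensity across replicate spots of either probe orientation.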
For “TACTGTTTAAAATATAAACACACATTGTTTGCTTTA [CACACA_site8358]”, the “gcPBM binding intensity (ln)” value turned out to be 8.51 ± 0.37.

As to TTTTTTGTTATATTTGTGCGCAAAAATTGCTGCTTG, the “gcPBM binding intensity (ln)” value was 8.88 ± 0.52.

For the sequence “CATAATATATTTTATGCATGCAAAGCAACCTTTTGA [TGCATGCA_site715]”, the “gcPBM binding intensity (ln)” value was found to be 9.59 ± 0.38.

With “TATTAACAAAATTTTTAACACACAAAAAAAAAAAAA [CACACA_site8542]”, the “gcPBM binding intensity (ln)” value is 8.28 ± 0.54.

As to “ATTATATATATATATAAACACACATAAATATAAATA [CACACA_site8291]”, the “gcPBM binding intensity (ln)” value stood at 8.56 ± 0.38.

For “TATTTATTTAAAGGCACACATATTTTTATACTTTCT [CACACA_site3163]”, the “gcPBM binding intensity (ln)” value was determined as 8.48 ± 0.32.

In the case of “AAAATTTATGTAAAATGTACATACATAAATAAAGAT [XGTACX_site4339]”, the “gcPBM binding intensity (ln)” value came to 9.06 ± 0.45.

On to “TTTGTAAAATAATATCTTTCATGTCCTTACTAATTA [GTGCAC_negctrl_site145]”, for which the “gcPBM binding intensity (ln)” value was 8.26 ± 0.52.

Consider “TAAGGAAAAAATTATAGTACATAATAAATGTATATA [XGTACX_site8328]”, for which the “gcPBM binding intensity (ln)” value is 8.29 ± 0.31.

Take “ATAAATATATTTCACGCACACACACCCCAAATAAAT [CACACA_site9272]”: the “gcPBM binding intensity (ln)” value was found to be 9.22 ± 0.64.

Turning to “AAAAAAGAAAAGAAATCATGAAAGAATCAAATAAAG [CACACA_negctrl_site1771]”, the “gcPBM binding intensity (ln)” value was 8.62 ± 0.53.

As to “CAAATTTTTTATTAAACACACAAACATATATTTATA [CACACA_site6992]”, the “gcPBM binding intensity (ln)” value is 8.18 ± 0.41.

Take “TTTTTATATATATTCTCACACACTTTTTATTTTAAC [CACACA_site657]”: the “gcPBM binding intensity (ln)” value turned out to be 8.7 ± 0.46.

With “TGTTTTTTATTTAATTGTACGAATTAAAAAAAATAA [XGTACX_site3009]”, the “gcPBM binding intensity (ln)” value came to 8.42 ± 0.41.

With AATATTCATATGCAGGTGCATTAATTTTTATTAATT, the “gcPBM binding intensity (ln)” value came to 8.78 ± 0.23.

For the sequence “TTCCAACCATAGTATTCACACATTGTTTTATTCCAT [CACACA_site4927]”, the “gcPBM binding intensity (ln)” value turned out to be 8.83 ± 0.41.

In the case of “TTTTTACTAATAAGATGTACATATATCCTAAGCATA [XGTACX_site251]”, the “gcPBM binding intensity (ln)” value is 8.44 ± 0.35.

Consider “TTTCGTAAACAAATTTGTACGTACAAATTTATAAAT [XGTACX_site8175]”, for which the “gcPBM binding intensity (ln)” value was found to be 8.96 ± 0.28.

For the sequence “ATAATATAATAAACGTGTACACAATTAAATTATTAT [XGTACX_site3491]”, the “gcPBM binding intensity (ln)” value was 8.68 ± 0.26.

With “TACATACATACATACACACATACATATATATATATA [CACACA_site1387]”, the “gcPBM binding intensity (ln)” value came out at 10 ± 0.24.

For “TCTTTTATTAGTAAAAGTACTTATATAAATATTATA [XGTACX_site5099]”, the “gcPBM binding intensity (ln)” value was found to be 8.28 ± 0.28.

Regarding “TAGCTCGTTCGGAGCACACACATATAAATAAATATA [CACACA_site7002]”, the “gcPBM binding intensity (ln)” value came out at 8.38 ± 0.52.

As for “TATCAAATCCAAAGGGGTACATTTTGTTGTCCTAAT [XGTACX_site5575]”, the “gcPBM binding intensity (ln)” value came to 8.36 ± 0.39.

In the case of “GAAAAAAAAAAAAATACACACAAATTGGTATATAAT [CACACA_site4369]”, the “gcPBM binding intensity (ln)” value came out at 8.41 ± 0.39.

Consider “AATACTCTATTTTATAGTACATATATTATTAATCAC [XGTACX_site6622]”, for which the “gcPBM binding intensity (ln)” value stood at 8.36 ± 0.3.

Turning to “ATAGACAGCGCACAAACACACAAACACGCACGCACA [CACACA_site6349]”, the “gcPBM binding intensity (ln)” value was 8.66 ± 0.5.

“TAGGGATTATACCACACACACATACCCATAAATATA [CACACA_site5719]”: the “gcPBM binding intensity (ln)” value was found to be 8.78 ± 0.52.

On to “ATATATATATATTATACACACGCCGAAAAAATAAAA [CACACA_site1551]”, for which the “gcPBM binding intensity (ln)” value is 9.51 ± 0.13.

Consider “TTACGAAAAAACAAGAGTACATGATGTTATAAAATA [XGTACX_site1412]”, for which the “gcPBM binding intensity (ln)” value was 8.76 ± 0.32.

For the sequence “TTTATTTTATCTAAAAGTACTTAAATTAGTGTATTT [XGTACX_site5696]”, the “gcPBM binding intensity (ln)” value was determined as 8.38 ± 0.3.

Turning to “CGTTGTAGGGAATGTAGTACAGTTATTATTTTATTA [XGTACX_site2429]”, the “gcPBM binding intensity (ln)” value came out at 8.44 ± 0.26.

Take “TATATATATAAATACACACACACACCGATATATATA [CACACA_site5408]”: the “gcPBM binding intensity (ln)” value was 9.07 ± 0.45.

On to “TCATACATTTTCAGCCTGCACTTATATTTAATAATA [GTGCAC_site9863]”, for which the “gcPBM binding intensity (ln)” value is 8.86 ± 0.48.

In the case of “ATTTCCCCAACGTGGGTGCATATATTTATGTGTGAA [GTGCAC_site9439]”, the “gcPBM binding intensity (ln)” value was 9.12 ± 0.23.

As to “ATTATGTGAGGTAACTAAATATGTACGTAACGAAGA [CACACA_negctrl_site1400]”, the “gcPBM binding intensity (ln)” value came out at 9.12 ± 0.31.

Turning to “TATTAATTATTTTACTGTACTAATAATACTTTTATT [XGTACX_site2179]”, the “gcPBM binding intensity (ln)” value was 8.5 ± 0.44.

For the sequence “ATTATATTTTTAAGTACACACATATAAATAAATATA [CACACA_site7682]”, the “gcPBM binding intensity (ln)” value is 8.43 ± 0.35.

Regarding “ATATATATATATGTGTGTACTTAAAAATATAATGCA [XGTACX_site7753]”, the “gcPBM binding intensity (ln)” value stood at 10.2 ± 0.14.

Regarding “TAATGTATAATTAATCGTACATTAGATTGTTGTGTT [XGTACX_site52]”, the “gcPBM binding intensity (ln)” value was 8.43 ± 0.51.

For “AATTTTTTTTTTTTTTTTTCTTTTGTAATAAACCAT [XGTACX_negctrl_site334]”, the “gcPBM binding intensity (ln)” value was 8.18 ± 0.44.

“AAAAAAAAAAAACACACACACACACCGAAATATATA [CACACA_site4261]”: the “gcPBM binding intensity (ln)” value came out at 8.65 ± 0.65.

With “TTCAGCATAAACACTTGTACATATATACTAAAAATT [XGTACX_site7272]”, the “gcPBM binding intensity (ln)” value is 8.51 ± 0.42.

For “AAGGGAAAATAATAAAAGAAAAAGAAAAAAAAAAAA [CACACA_negctrl_site1518]”, the “gcPBM binding intensity (ln)” value stood at 8.36 ± 0.4.

Take “TAATGGAGAAAAAAAAAACACACGGTACATTCAAAG [CACACA_site3117]”: the “gcPBM binding intensity (ln)” value was 8.82 ± 0.49.

Turning to “TATATATATATATATTGTACTTTATATGTTCTTATA [XGTACX_site7545]”, the “gcPBM binding intensity (ln)” value came out at 10.3 ± 0.11.

Turning to “TTTTATAAAGGAAAAGCATGCAGACTAAAAGATCAT [TGCATGCA_site150]”, the “gcPBM binding intensity (ln)” value turned out to be 9.81 ± 0.4.

As to “AAATATTACATTTGTTAAATAATATGTTATACATAA [XGTACX_negctrl_site484]”, the “gcPBM binding intensity (ln)” value came out at 8.01 ± 0.39.

Regarding “ACAAATAAGTTTTATACACACATATAAGTAAATACA [CACACA_site4157]”, the “gcPBM binding intensity (ln)” value was determined as 8.57 ± 0.29.

“GAGAGGAACATTATATGTACATATTAATTCTAAAAT [XGTACX_site5433]”: the “gcPBM binding intensity (ln)” value was determined as 8.52 ± 0.4.

Regarding “TATAGTGATATATACACACACTTGTCTTGTAAAAAT [CACACA_site6594]”, the “gcPBM binding intensity (ln)” value came to 8.46 ± 0.35.

Consider “ACAATATTTTTTTATAAACACACATATATATAAATA [CACACA_site9175]”, for which the “gcPBM binding intensity (ln)” value stood at 8.41 ± 0.44.

On to “TGTATAAAAATTTATACACACATTTTATATATTTCA [CACACA_site1015]”, for which the “gcPBM binding intensity (ln)” value stood at 8.19 ± 0.4.

Take “TATTAATTATTATGACATACATATCAGTTATTAAAA [CACACA_negctrl_site600]”: the “gcPBM binding intensity (ln)” value was 8.23 ± 0.52.

Turning to “TAATCCATAAGAAGCACACACATATATATATATTTT [CACACA_site1399]”, the “gcPBM binding intensity (ln)” value came out at 8.54 ± 0.53.

“ATTTTGTTATTATATATATATATATATATATATATA [XGTACX_negctrl_site590]”: the “gcPBM binding intensity (ln)” value came to 10.3 ± 0.57.

Regarding ATATATATATATATAGTGCACATTTATATAATTATT, the “gcPBM binding intensity (ln)” value came to 10.3 ± 0.17.

As for “AAATTTATAAAGAACACACACATATATATATATATA [CACACA_site48]”, the “gcPBM binding intensity (ln)” value was 10.2 ± 0.27.
